Source: PubChem BioAssay AID1508623 (National Center for Advancing Translational Sciences (NCATS), 2021)
The campaign covered roughly 48,000 compounds. About 450 (0.94%) were called active. Roughly 19% stayed inconclusive and do not appear here. Calls come from the whole dose curve; as a rule, active = well fitted inhibition curve with a large enough effect; inconclusive = small, poorly fitted or top-dose-only effect; inactive = no such curve, though single readings can be large or run the other way. Some of the results follow.

Assay: Primary qHTS for Identification of Small Molecule Inhibitors of Huntingtin Promoter Activity; note: nearly all actives have a fitted effect of over 50% in size
Settings: HEK293 HTT promoter firefly luciferase reporter (activity 0% = vehicle and -100% = no light), 24 h; series mostly up to 57.5 µM; activity change, negative = inhibition: at the top concentration
Method in brief: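 Firefly luciferase signal from promoter-reporter HEK293 cells was scaled between vehicle (0%) and zero RLU (-100%). Compounds were tested at final concentrations of up to 57.5 uM over 24 h at 37 degrees C. PTC124 at 50 uM final served as control inhibitor.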

Activity change, negative = inhibition, inactive:
COc1cccc(CNC(=O)Cn2ncc3c(=O)oc4ccccc4c32)c1 -5.68%
Cc1ccc(CSc2cn(CC(=O)N3CCCCCC3)c3ccccc23)cc1 -14.3%
CCCN(Cc1cc2cccc(C)c2[nH]c1=O)C(=O)c1cccc(Cl)c1 -15.7%
COCCCNC(=O)c1ccc(CSc2nc3cccnc3n2Cc2ccc(OC)cc2)cc1 -10.6%
Cc1cc(C)c(S(=O)(=O)Nc2ccc3oc4c(c3c2)CCCC4)cc1C -31.5%
CCOC(=O)c1ccccc1NC(=O)CSc1c(C)cnc2c1c(=O)n(C)c(=O)n2C -3.81%
Cc1nc2c(c(C)c1CCC(=O)N1CCN(c3ccccc3)CC1)c(=O)n(C)c(=O)n2C -13%
COc1ccc(C2C=C(c3ccccc3)Nc3nc(NS(=O)(=O)c4ccccc4)nn32)cc1 (configuration not stated) -8.29%
O=C(Nc1cccc(Cl)c1Cl)c1cc(S(=O)(=O)N2CCCCC2)ccc1F -19.3%
COc1cccc(NC(=O)c2c(-c3ccc(C)cc3)nnc3ccccc23)c1 32.2%
Cc1ccc(C)c(Cn2c(=O)n(-c3ccc(Cl)cc3)c(=O)c3c4c(sc32)CCC4)c1 -4.54%
O=C(CCNNC(=O)c1ccncc1)NCc1ccccc1 -6.19%
COc1ccc(OC)c(S(=O)(=O)NCCc2sc(-c3cccnc3)nc2C)c1 -3.74%
CC(=O)OC1=CN(Cc2ccccc2)S(=O)(=O)c2ccccc21 -15.3%
CCCN(Cc1cccs1)C(=O)Nc1cc(C)ccc1OC -7.3%
COc1ccccc1N1CCN(c2nc3ccc(C(=O)c4ccccc4)cc3n3c(C)nnc23)CC1 4.99%
CCc1nn(CC(=O)Nc2ccc(C)c(F)c2)c(=O)c2cc3cc(C)ccc3n12 26.6%
COc1ccc(OC)c(CNC(=O)C2CCN(S(=O)(=O)N3CCCCC3)CC2)c1 -16.6%
O=C(COc1ccc(F)cc1)Nc1ccc2nc(SCC(=O)N3CCCC3)sc2c1 -28.2%
COc1ccccc1N1CCN(C2C(=O)c3ccccc3N2C(C)=O)CC1 (configuration not stated) -31.1%
Cc1ccc(-c2cn3c(n2)sc2cc(C(=O)NCCC4=CCCCC4)ccc23)c(C)c1 29.1%
CCOc1ccc(S(=O)(=O)NCC(c2ccc(N(C)C)cc2)N2CCCC2)cc1 (configuration not stated) -0.0955%
CCOc1ccc(-c2nnc(SCC(=O)Nc3ccccc3C(F)(F)F)o2)cc1 -28.6%
Cc1cccc(C)c1NC(=O)c1cc(S(N)(=O)=O)c(Cl)cc1O 10.2%
CCOc1ccc(OCC)c(NC(=O)c2nnn(Cc3cc(Br)ccc3OC)c2N)c1 -12.8%
COCCCNC(=O)c1cn(CC(C)C)c(=O)c2c1c1ccccc1n2C -5.34%
COCCn1c(CNC(=O)c2cccc(N(C)C)c2)nc2cccnc21 44.7%
Cc1ccc(NC(=O)c2nc(S(C)(=O)=O)ncc2N(Cc2ccco2)Cc2ccccc2F)c(C)c1 -23.6%
CCN(Cc1ccccc1)C(=O)CCS(=O)(=O)c1cc2c(cc1Cl)NC(=O)CO2 -8.29%
CCCOc1ccc(C2c3c(oc4ccccc4c3=O)C(=O)N2c2ccc(C)cn2)cc1OCC (configuration not stated) -0.151%
Cc1nc2ccccn2c(=O)c1CCN1CCC(C(=O)c2ccc(F)cc2)CC1 -7.52%
Cc1ccc(CCNC(=O)c2ccc3c(=O)n(-c4ccc(C)cc4)c(=O)[nH]c3c2)cc1 1.73%
CCOc1cccc2sc(NC(=O)c3ccc(S(=O)(=O)N4CCCc5ccccc54)cc3)nc12 -23.4%
Cc1ccccc1S(=O)Cc1ccc(C(=O)NC2CCCCCC2)o1 (configuration not stated) -20.1%
COc1ccc2oc(=O)c(-c3nc(-c4cc(OC)c(OC)c(OC)c4)no3)cc2c1 4.51%
O=C(CNS(=O)(=O)c1cccs1)N1CCN(c2ccccc2Cl)CC1 79.8%
CCC(=O)c1ccc2c(c1)N(CCCN(C)C)c1ccccc1S2 -6.2%
O=C(Cn1cc(SCc2cccc(F)c2)c2ccccc21)N1CCCC1 0.792%
Cc1ccc2c(CNCc3cccc(Cl)c3)c(C(=O)O)n(Cc3ccc(F)cc3Cl)c2c1 -5.03%
Cc1cc2oc(C(=O)Nc3sc4c(c3C(=O)NCc3ccco3)CCC4)cc(=O)c2cc1C -22.9%
Cc1ccc(C(=O)Nc2ccc3nc(SCC(=O)N4CCc5ccccc54)sc3c2)cc1 -0.84%
COc1ccc(N2CCN(C(=O)c3cnc(N4CCCC4)nc3C)CC2)cc1 -7.86%
CCC(Sc1nc2ccccc2c2nc(CCc3c(C)n[nH]c3C)nn12)C(=O)Nc1ccc(F)cc1 (configuration not stated) -5.7%
Cc1c(Cl)cccc1NC(=O)N1CCC(CN2CCCC2)CC1 -16.1%
COc1cccc(-n2nnc3c(sc4nc(C)cc(C)c43)c2=O)c1 17.3%
O=C(Nc1sc2c(c1C(=O)Nc1ccccc1Cl)CCCC2)c1ccccc1F 7.8%
COC(=O)c1c(NC(=O)c2cc(=O)c3ccc(C)c(C)c3o2)sc2c1CCCC2 10.1%
O=C(NCc1ccccc1Br)C1CCCN(C(=O)N2CCOc3ccccc32)C1 (configuration not stated) -25.9%
CCCCN(CCCC)CC(O)c1cc(Cl)cc2c1-c1ccc(Cl)cc1C2=Cc1ccc(Cl)cc1 (configuration not stated) -8.38%
COc1ccc(-c2cc3nc(-c4ccccc4)cc(C(F)(F)F)n3n2)cc1 -8.77%
COc1ccc(CCNC(=O)Cc2c(C)c3c(cc(C)c4c(C)coc43)oc2=O)cc1 0.467%
COC(=O)c1cc(NC(=O)c2oc(=O)c3ccccc3c2-c2ccccc2)cc(C(=O)OC)c1 -7.57%
Cc1ccc(NC(=O)CN2C(=O)CSc3ccc(S(=O)(=O)N4CCCC4)cc32)cc1F -10.1%
Cc1ccc(NC(=O)c2c(NC(=O)c3ccco3)sc3c2CCC(C(C)(C)C)C3)c(C)c1 (configuration not stated) -20% [at 11.5 µM]
O=C(Cc1ccc(F)cc1)NC1CC(=O)N(c2ccc3c(c2)OCCO3)C1 (configuration not stated) -11.7%
COc1cccc(-c2cn3c(n2)sc2cc(C(=O)NC4CCCCCC4)ccc23)c1 -10.2%
COc1ccc(Br)cc1CNC(=O)Cn1c(=O)c2cccn2c2ccc(F)cc21 3.8%
Cc1cc(C)c2oc(-c3cccc(NC(=O)c4ccc(Br)o4)c3)nc2c1 -8.08%
CCC(C)c1ccc(OCC(=O)Nc2cccc(-c3nc4ncccc4o3)c2)cc1 (configuration not stated) 15.7%
CCOc1ccc(NC(=O)c2oc3ccccc3c2NC(=O)Cc2ccc(F)cc2)cc1 -4.83%
Cc1ccccc1NC(=O)CCC(=O)N1CCSc2ccccc21 -15.4%
CC(=O)N1c2ccc(S(=O)(=O)NCC3CCC(C(=O)NC(C)(C)C)CC3)cc2CC1C (configuration not stated) -3.16%
O=C(NCC(c1cccs1)S(=O)(=O)c1cccs1)c1ccccc1F (configuration not stated) 2.07%
Clc1ccccc1N1CCN(c2ncnc3c2c(-c2ccccc2)cn3-c2ccccc2)CC1 -28%
CCN(CC)c1nn2c(=O)c(C(=O)NCc3ccc(OC)cc3OC)cnc2s1 -0.661%
COc1ccccc1CNC(=O)c1ccccc1NC(=O)c1nsc2ccccc12 17.4%
Cc1ccc(-n2nc3ccc(NC(=O)c4oc5ccccc5c4C)cc3n2)cc1 14.7%
CCOC(=O)c1[nH]c2ccccc2c1NC(=O)c1ccccc1OCC -29.7%
CCN(C(=O)c1noc2c1COc1ccc(C)cc1-2)c1cccc(C)c1 -15.2%
CCOc1ccc(-c2nnc(SCC(=O)NC3CCCC3)nc2-c2ccc(OCC)c(OC)c2)cc1OC 4.83%
O=C(NCCCN1CCN(c2ccccc2)CC1)c1nnc(Cc2c(F)cccc2Cl)o1 -26.2%
CCOc1ccc(CCNC(=O)C2CCN(c3ncnc4c3nc3n4CCCCC3)CC2)cc1 -30.6%
CCOC(=O)C1CCN(C(=O)c2cc3ccc4cccnc4c3[nH]2)CC1 34.7%
Nc1c(C(=O)Nc2ccccc2Cl)c2ccccn2c1C(=O)c1ccc(Cl)cc1 -2.16%
COc1ccc(NC(=O)CSc2nc3c([nH]c4ccccc43)c(=O)n2C)cc1 -2.02%
Cc1ccc(CNC(=O)CSc2ncc(S(=O)(=O)c3ccc(Br)cc3)c(=O)[nH]2)cc1 4.96%
COc1ccc(NS(=O)(=O)c2ccc3c(c2)C(C(C)C)C(=O)N3)cc1 (configuration not stated) -25.1%
CCc1nn(CC(=O)NCCC(C)C)c(=O)c2cc3occc3n12 -7.14%
CC1(C)S[C@@H]2[C@H](NC(=O)[C@H](N)c3ccccc3)C(=O)N2[C@H]1C(=O)O 6.57%
CCn1c(C)c(C2N3CC4(C)CN2CC(CC)(C3)C4=O)c2ccccc21 (configuration not stated) -5.04%
Cc1ccc(CNC(=O)C(=O)NCC(c2cccs2)S(=O)(=O)c2ccc(C)cc2)cc1 (configuration not stated) -46.8%
COC(=O)c1sccc1S(=O)(=O)N(CC(=O)NCc1ccccc1)c1ccccc1 -12.1%
Cc1c(C(=O)N2CCC(C)CC2)c(S(=O)(=O)NCc2ccccc2)c(C)n1C -14.5%
Cc1nn(C(=O)c2ccccc2F)c(C)c1S(=O)(=O)N1CCOCC1 -13%
COc1ccc(Nc2ncnc3c2cnn3-c2ccc(C)cc2C)cc1 24.4%
CC(=O)c1cccc(NC(=O)Cn2c(=O)c(CNc3ccc(C)cc3)cc3cc4c(cc32)OCCO4)c1 -9.67%
CCOc1ccccc1NS(=O)(=O)c1c(C)nc2sccn2c1=O -10.3%
CCn1c(=O)c2cc(C(=O)N(CCCOC(C)C)Cc3ccco3)sc2c2ccccc21 -31.5%
Cc1ccc(-c2sc(C(=O)Nc3ccc(Br)cc3)cc2CC(=O)O)cc1 -3.58%
Cc1cc(C)c(NC(=O)Cn2c(SCC(=O)NCc3ccccc3)nc3ccccc32)c(C)c1 0%
COc1cccc(CNC(=O)C2CCN(S(=O)(=O)c3ccc4c(ccn4C)c3)CC2)c1 -24.6%
COc1ccc(-c2cn3cccnc3n2)cc1NC(=O)c1c(F)cccc1F 5.17%
CSc1ccc(C2c3[nH]c4ccccc4c3CCN2C(=O)CCc2ccccc2)cc1 (configuration not stated) -26.6%
COc1cc(Cl)c(C)cc1NC(=O)CCn1c(=O)c2cccn2c2cccnc21 -0.0841%
CCOC(=O)[C@H](CCc1ccccc1)N[C@@H](C)C(=O)N1CCCC1C(=O)O (some centres not stated) 8.42%
CC(C)c1nc2ccc(C(=O)NCc3ccc(N(C)C)cc3)cc2o1 -18%
Cc1ccc(-n2nc3c(=O)n(CCCC(=O)NCCc4ccccc4)nc(C)c3c2C)cc1 -3.44%
